Measured values reported in the RNAGym collection of RNA variant scans (doi:10.7554/elife.90254).
Read counts are not given, so values of variants with three or more changes are uncertain.

B1: LINE1-mini (parent)
chain: GGCAGAGCUCAACACAGCGUGGCAAAGUGGCUGUGGCUAGACUGCC

Variants of: B1
Experiment: self-cleavage, relative activity (ratio to wild type); higher = more cleavage; in vitro, sequencing; the parent is a self-cleaving ribozyme

Variant | self-cleavage
G35U C37G G44A | 0.05
A12G C18U G21C U28G | 0.02
G5C G21U A24U | 0.09
G7U C8A G27U G30U C42G U43G | 0.66
A4U G5U A11C U28A | 0.01
A24U G36A G40C C46A | 0.18
G5U C18A A25G C31A U43G C46U | 0
A14C G27U A41G | 0.07
G7A G19U G40A C46U | 0.14
U32G G35C G36A C37U C46G | 0.12
G1C A14U G35U C46A | 0.02
G2U A14U C18A G35U G36A A41C | 0
C13U A25U U28C U32G G40A C45U | 0.02
G22U A39G U43C | 0.11
A11G G17A C23U C31U G33C | 0
C10A C18A G21C | 0.04
G2A U9G C15A | 0.2
G29A G30A G35U A41U | 0.05
A4C G22A C31U | 0.08
C3U U9G C15G G19U | 0.05
G5C A6C C42G | 0.69
C37G A39U A41C U43A | 0.04
C15A A26C U28C C42U | 0.01
G5A C18A U32G | 0.01

Variant | self-cleavage
C3G C10A A14C A24C A25U | 0
G7A G30U G35U C37A | 0
A12U U28A C31G U34C A39G | 0.01
U9G G21A A39G | 0.88
C3U A26U C46A | 0.35
A4C A6G A14G | 0.01
G5A G27C G35A C37A | 0.09
A11U G21C U34A C46A | 0.05
C10U C31G C46A | 0.07
C13A A25G C37A U43A | 0.11
A14G G19A G35C | 0.1
A14U C15A G21U G33C | 0.01
C13A C15G G17C C18U C46A | 0.02
A25U G36U U38A C42U | 0.03
G7A C13G G36C A39U U43C | 0.11
G1A A12G A24U G40A C46U | 0.04
U9A C18A C37U | 0.1
G2A C10G A11U G44C | 0.03
C13A G17C A26U G30U | 0.1
C13U U32G G33C G40C | 0.03
G1C C3A C15U G17C | 0.05
G7C A24U A25G C31U A41C C46A | 0.01
C3U A4U A6C C18G A25U U38C C46U | 0.07
U9A A16G A24U G27U | 0.03

Variant | self-cleavage
G7C G30A G33U G36U C37G U38A | 0.01
G5C U9C C15A | 0.04
C3A A24U G33A G36U | 0.19
C15G U28A G35A | 0.01
C3A A4C G5U G33C G36A | 0.08
C3G G30A C46A | 0.11
C3G A4G G5U G7C U32C C45G | 0.01
G5C U20G A39C C45G | 0.04
A4U G17U G29U G30U A39U | 0.03
G7U C15U A25G U32G G44U C46A | 0.19
C15G G35U C37G | 0.01
G5A C18A G21C U38C | 0.04
G1C C42U G44U | 0.01
U9C A24U C45A | 0.01
A4U A14C A26U G30U U32G C45U | 0.46
A4C A16G C31A | 0.1
G21U G29U A39U | 0.19
C13A A24U C42G C45U | 0.02
G2C A12C C23U | 0.03
G2U A11U G29A | 0.02
A6U C18U A26G C31A G40A | 0.01
G17U G35A A41C | 0.01
C37U C42U U43A | 0.06
C15A C31G C46U | 0.02

Variant | self-cleavage
A6G G7U A14C C15U C23A C42U | 0.12
C23U U34G G35U | 0.11
G7U G19A C45A C46G | 0.05
G21U G30A C37A | 0.01
C10U G17C A25C U38C U43A | 0.01
C10A G21A A24U U28C | 0.03
A12U G30C C37U A39G G40U | 0.03
C10A A11U G19U A39G | 0.03
C3A A14G G21A A25G G33U | 0.03
G2U A14U C45G | 0.26
G1U A16U G21A G29C G36C U38A | 0.05
A4G U32G G40A | 0.26
C18U C37A G40U | 0.18
C31A C37A C45A | 0.03
G1A G7C G17C | 0.71
G5U A26U C31G G33U G44A | 0
C18A G21C G44C | 0.04
G2U G19U A39C G44A | 0.02
U9A A12C G27A C42G C46U | 0
C3G G22A A24C G30A G40C | 0.09
C3G A11C U20C G21C G22U U28A G40A | 0
C8U A26U U34A | 0.06
A4U G5C A25C | 0.08
G17C U34C G40A | 0.03

Variant | self-cleavage
G5U C23A C46A | 0.11
A16U U20G C23U | 0.06
G17U C31A A39U | 0.51
A6C G7C U9C U20A A25C | 0.01
A12C G27A G44A | 0.01
G19U G36U C45G | 0.22
A6U C8U A12U G19A | 0.36
C10A A12C A24G U32A | 0
A6C G7C U28C C45U | 0.15
C3U C8A C31A | 0.43
A4C G29U C37U A41C | 0.03
U20A C23U A26U C31G | 0.09
G5C C18A U28C | 0.04
U9G C23U C31G | 0.02
U9A A12U C31U | 0.04
A12U G17U C23U | 0.05
U28G G30A U32A G33A A39G | 0.05
C8A A11U G17A A39C U43A | 0.06
A6G G22C G27C G35U | 0.04
A11G A16C C46U | 0.01
G30U U34G U43C | 0.02
A4U A12U G19U G27C U34G | 0.02
C8U A16C U28C G36U C42U | 0.12
G5C C18U U43A | 0.02

Variant | self-cleavage
G29C C31A U34A G44C | 0.05
U9G A16G U20A G30A | 0.03
G1C G29A G40C | 0.03
A4C G7U A11C A14G G17U G22A G30U G36A | 0.02
G1A G22A C37U | 0.02
U9C G21C U28A | 0.02
G2A C23G A24C A25C | 0.15
G7C C10G G33C | 0.02
G5C A14C C15A U20G C45A | 0.02
C8A C10G G19C G40A | 0
U9A U32A G35A C37A G40U | 0.18
C15U G36A C46A | 0.01
A4U C10U G29U | 0.28
C3G C15A C23A | 0.12
C31A U34C G36U C37G G44U | 0.13
G1C C3G G27A | 0.11
C10G C18A G19U G21U U38C A41G | 0
C8A A14U C18G G21C | 0.03
G22U C23U G27A | 2.71
G2C C23U U28A U34G G35U G36C | 0.09
C3G C18U G40C C45G | 0.04
A4G A12U A14U | 0.13
A26C U28G G40U G44U | 0.11
G7A G22A C46U | 0.07

Variant | self-cleavage
G2C A39G C42A | 0.11
A6G A11C G35A C46U | 0
A16U G21U A26U G30A G36C | 0.01
G7C C13G U38C C45G | 0.05
C8A G21C G36U C42A | 0.06
G2A G5C C37G | 0.04
G2U C15U G29A G36A G44C | 0.13
A14U C15G G22U U32C A39G | 0
C18U U20G C46U | 0.02
U9G A16U G22A G27C G29U C37A C45G | 0.15
G1C C3U G29U C46A | 0.08
A12G A14U C42U G44A C46U | 0
G2C C8G U9C G29C U32G | 0.04
C23A A26C U32G G33C U34C | 0.16
G17A C23A G33A G36A | 0.07
G1A A11C C23G | 0.02
C8U C15A U32C | 0.08
C23A A25C G35U G36C G44A | 0.15
C10U C18A C42U G44U | 0.01
A12C A14C G17C C23A U34C C37U G40A G44U | 0
C10U A14U G22U U32G | 0.04
C8G C15U G17A C45G | 0.11
A14G C18A C23A U32G G36U | 0.22
